Assay results from PMC3358469 (Biomaterials, 2012).

Target: the molecule itself
Assay: cryo-EM structure

B1: P22 F170A polyheads (nanotubes), helical assemblies of coat protein with the F170A substitution (complex)
chain: not shown
  binding result: binds
